# Test results: the supplement of paper PMC8728848
# Some of the results follow.
# B1: PNGase F (Flavobacterium meningosepticum) (protein)
# chain: GIPAPADNTVNIKTFDKVKNAFGDGLSQSAEGTFTFPADVTAVKTIKMFIKNECPNKTCDEWDRYANVYVKNKTTGEWYEIGRFITPYWVGTEKLPRGLEIDVTDFKSLLSGNTELKIYTETWLAKGREYSVDFDIVYGTPDYKYSAVVPVVQYNKSSIDGVPYGKAHTLALKKNIQLPTNTEKAYLRTTISGWGHAKPYDAGSRGCAEWCFRTHTIAINNSNTFQHQLGALGCSANPINNQSPGNWTPDRAGWCPGMAVPTRIDVLNNSLIGSTFSYEYKFQNWTNNGTNGDAFYAISSFVIAKSNTPISAPVVTNLDPHHHHHH
# Tests used:
# Assay in all cases: glycan array binding signal (z-score within array); higher = stronger binding
# Conditions in all cases: glycan notation: IUPAC condensed, linker removed
# [1] = target: Fuc(a1-2)Gal
# Method in brief: (§1)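 Glycan array data were curated from 3228 arrays in the Consortium for Functional Glycomics database and kept only where the protein sequence was available. Glycan names were converted to IUPAC-condensed notation, and columns mapping to the same glycan were averaged. The binding signal is a within-array Z-score, averaged across arrays of the same protein sequence at different concentrations or buffers and across linkers. Negative Z-scores can be read as non-binding.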
# [2] = target: Fuc(a1-2)Gal(b1-3)GalNAc
# Method in brief: as §1
# [3] = target: Fuc(a1-2)Gal(b1-3)GalNAc(a1-3)[Fuc(a1-2)]Gal(b1-4)Glc
# Method in brief: as §1
# [4] = target: Fuc(a1-2)Gal(b1-3)GalNAc(a1-3)[Fuc(a1-2)]Gal(b1-4)GlcNAc
# Method in brief: as §1
# [5] = target: Fuc(a1-2)Gal(b1-3)GalNAc(b1-3)Gal
# Method in brief: as §1
# [6] = target: Fuc(a1-2)Gal(b1-3)GalNAc(b1-3)Gal(a1-4)Gal(b1-4)Glc
# Method in brief: as §1
# [7] = target: Fuc(a1-2)Gal(b1-3)GalNAc(b1-4)[Neu5Ac(a2-3)]Gal(b1-4)Glc
# Method in brief: as §1
# [8] = target: Fuc(a1-2)Gal(b1-3)GlcNAc
# Method in brief: as §1
# [9] = target: Fuc(a1-2)Gal(b1-3)GlcNAc(b1-2)Man(a1-3)[Fuc(a1-2)Gal(b1-3)GlcNAc(b1-2)Man(a1-6)]Man(b1-4)GlcNAc(b1-4)GlcNAc
# Method in brief: as §1
# [10] = target: Fuc(a1-2)Gal(b1-3)GlcNAc(b1-2)Man(a1-3)[Fuc(a1-2)Gal(b1-3)GlcNAc(b1-2)Man(a1-6)]Man(b1-4)GlcNAc(b1-4)[Fuc(a1-6)]GlcNAc
# Method in brief: as §1
# [11] = target: Fuc(a1-2)Gal(b1-3)GlcNAc(b1-3)Gal(b1-4)Glc
# Method in brief: as §1
# [12] = target: Fuc(a1-2)Gal(b1-3)GlcNAc(b1-3)GalNAc
# Method in brief: as §1
# [13] = target: Fuc(a1-2)Gal(b1-3)GlcNAc(b1-3)[Fuc(a1-2)Gal(b1-3)GlcNAc(b1-6)]GalNAc
# Method in brief: as §1
# [14] = target: Fuc(a1-2)Gal(b1-3)GlcNAc(b1-3)[Gal(b1-4)GlcNAc(b1-6)]Gal(b1-4)Glc
# Method in brief: as §1
# [15] = target: Fuc(a1-2)Gal(b1-3)GlcNAc(b1-3)[Neu5Ac(a2-6)Gal(b1-4)GlcNAc(b1-6)]Gal(b1-4)Glc
# Method in brief: as §1
# [16] = target: Fuc(a1-2)Gal(b1-3)GlcNAc6S
# Method in brief: as §1
# [17] = target: Fuc(a1-2)Gal(b1-3)[Fuc(a1-4)]GlcNAc
# Method in brief: as §1
# [18] = target: Fuc(a1-2)Gal(b1-3)[Fuc(a1-4)]GlcNAc(b1-2)Man(a1-3)[Fuc(a1-2)Gal(b1-3)[Fuc(a1-4)]GlcNAc(b1-2)Man(a1-3)]Man(b1-4)GlcNAc(b1-4)GlcNAc
# Method in brief: as §1
# [19] = target: Fuc(a1-2)Gal(b1-3)[Fuc(a1-4)]GlcNAc(b1-2)Man(a1-3)[Fuc(a1-2)Gal(b1-3)[Fuc(a1-4)]GlcNAc(b1-2)Man(a1-6)]Man(b1-4)GlcNAc(b1-4)[Fuc(a1-6)]GlcNAc(b1-4)[Fuc(a1-6)]GlcNAc
# Method in brief: as §1
# [20] = target: Fuc(a1-2)Gal(b1-3)[Fuc(a1-4)]GlcNAc(b1-3)[Fuc(a1-3)[Gal(b1-4)]GlcNAc(b1-6)]Gal(b1-4)Glc
# Method in brief: as §1
# [21] = target: Fuc(a1-2)Gal(b1-3)[Fuc(a1-4)]GlcNAc(b1-3)[Gal(b1-4)GlcNAc(b1-6)]Gal(b1-4)Glc
# Method in brief: as §1
# [22] = target: Fuc(a1-2)Gal(b1-4)Glc
# Method in brief: as §1
# [23] = target: Fuc(a1-2)Gal(b1-4)Glc6S
# Method in brief: as §1
# [24] = target: Fuc(a1-2)Gal(b1-4)GlcNAc
# Method in brief: as §1
# [25] = target: Fuc(a1-2)Gal(b1-4)GlcNAc(b1-2)Man
# Method in brief: as §1
# [26] = target: Fuc(a1-2)Gal(b1-4)GlcNAc(b1-2)Man(a1-3)[Fuc(a1-2)Gal(b1-4)GlcNAc(b1-2)Man(a1-6)]Man(b1-4)GlcNAc(b1-4)GlcNAc
# Method in brief: as §1
# [27] = target: Fuc(a1-2)Gal(b1-4)GlcNAc(b1-2)Man(a1-3)[Fuc(a1-2)Gal(b1-4)GlcNAc(b1-2)Man(a1-6)]Man(b1-4)GlcNAc(b1-4)[Fuc(a1-6)]GlcNAc
# Method in brief: as §1
# [28] = target: Fuc(a1-2)Gal(b1-4)GlcNAc(b1-2)[Fuc(a1-2)Gal(b1-4)GlcNAc(b1-4)]Man(a1-3)[Fuc(a1-2)Gal(b1-4)GlcNAc(b1-2)Man(a1-6)]Man(b1-4)GlcNAc(b1-4)GlcNAc
# Method in brief: as §1
# [29] = target: Fuc(a1-2)Gal(b1-4)GlcNAc(b1-3)Gal(b1-4)GlcNAc
# Method in brief: as §1
# [30] = target: Fuc(a1-2)Gal(b1-4)GlcNAc(b1-3)Gal(b1-4)GlcNAc(b1-2)Man(a1-3)[Fuc(a1-2)Gal(b1-4)GlcNAc(b1-3)Gal(b1-4)GlcNAc(b1-2)Man(a1-6)]Man(b1-4)GlcNAc(b1-4)GlcNAc
# Method in brief: as §1
binder,measurement,setting,value
B1,glycan array binding signal (z-score),[1],0.042
same,glycan array binding signal (z-score),[2],-0.232
same,glycan array binding signal (z-score),[3],-0.255
same,glycan array binding signal (z-score),[4],-0.194
same,glycan array binding signal (z-score),[5],1.61
same,glycan array binding signal (z-score),[6],-0.124
same,glycan array binding signal (z-score),[7],-0.266
same,glycan array binding signal (z-score),[8],-0.147
same,glycan array binding signal (z-score),[9],0.18
same,glycan array binding signal (z-score),[10],-0.023
same,glycan array binding signal (z-score),[11],-0.232
same,glycan array binding signal (z-score),[12],-0.098
same,glycan array binding signal (z-score),[13],0.162
same,glycan array binding signal (z-score),[14],-0.346
same,glycan array binding signal (z-score),[15],-0.183
same,glycan array binding signal (z-score),[16],-0.123
same,glycan array binding signal (z-score),[17],-0.192
same,glycan array binding signal (z-score),[18],0.438
same,glycan array binding signal (z-score),[19],-0.102
same,glycan array binding signal (z-score),[20],-0.347
same,glycan array binding signal (z-score),[21],-0.246
same,glycan array binding signal (z-score),[22],0.092
same,glycan array binding signal (z-score),[23],0.271
same,glycan array binding signal (z-score),[24],-0.196
same,glycan array binding signal (z-score),[25],0.429
same,glycan array binding signal (z-score),[26],-0.299
same,glycan array binding signal (z-score),[27],-0.088
same,glycan array binding signal (z-score),[28],-0.019
same,glycan array binding signal (z-score),[29],-0.311
same,glycan array binding signal (z-score),[30],-0.235
